Laboratory results reported in PubChem BioAssay AID1030 (National Center for Advancing Translational Sciences (NCATS), 2008).
Screen size: about 220,000 compounds; about 16,000 (7.3%) were called active. Inconclusive results, whose numbers are uncertain, are shown with a selection of clear calls. Calls come from the whole dose curve; as a rule, active = well fitted inhibition curve with a large enough effect (not every such curve was filed as active); inconclusive = small, poorly fitted or top-dose-only effect, or another doubt; inactive = no such curve, though single readings can be large or run the other way. No potency is given beside an inconclusive call; the fits are too rough.

These molecules were tested against Aldehyde dehydrogenase 1A1 (Homo sapiens) (UniProt P00352) (assay: qHTS Assay for Inhibitors of Aldehyde Dehydrogenase 1 (ALDH1A1)). Details: Purified ALDH1A1, NADH fluorescence, propionaldehyde substrate; series mostly up to 75.3 µM.
Potency is the fitted concentration of half-maximal effect; tags give direction and shape of the fitted curve.

Sequence of UniProt P00352 (P00352 whole entry, looked up): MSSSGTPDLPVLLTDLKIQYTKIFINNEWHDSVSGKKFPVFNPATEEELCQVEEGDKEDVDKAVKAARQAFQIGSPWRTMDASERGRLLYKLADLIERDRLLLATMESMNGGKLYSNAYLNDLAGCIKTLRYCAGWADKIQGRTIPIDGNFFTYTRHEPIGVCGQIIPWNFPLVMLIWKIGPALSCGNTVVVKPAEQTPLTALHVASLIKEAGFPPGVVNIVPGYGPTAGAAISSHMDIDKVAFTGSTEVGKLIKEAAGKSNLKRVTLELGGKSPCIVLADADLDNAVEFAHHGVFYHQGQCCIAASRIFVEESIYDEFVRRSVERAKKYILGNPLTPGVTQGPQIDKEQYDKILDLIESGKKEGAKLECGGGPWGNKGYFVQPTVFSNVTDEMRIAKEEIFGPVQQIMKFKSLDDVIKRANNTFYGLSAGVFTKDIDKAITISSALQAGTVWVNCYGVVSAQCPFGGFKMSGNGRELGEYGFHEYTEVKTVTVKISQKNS

Structure (SMILES)	Potency
CCCCn1c(SCC(=O)N2CCN(c3ccccc3)CC2)nc2ccsc2c1=O	inconclusive [inhibitor, single point]
CCCCNC(=O)CCCn1c(=O)c2ccccc2n(CC(=O)NCCC2=CCCCC2)c1=O	inconclusive [inhibitor, partial curve]
Cc1ccc(NC(=O)c2ccc([N+](=O)[O-])o2)cc1S(=O)(=O)N1CCOCC1	inconclusive [inhibitor, single point]
O=C(COc1ccc(Cl)cc1Cl)N(Cc1ccco1)C1CCS(=O)(=O)C1 (stereo unspecified)	inconclusive [inhibitor, full curve]
CC1CCCN(CC(O)COc2ccc3c(c2)OCO3)C1 (stereo unspecified)	inactive
CC(C)NC(=O)c1c(O)c2ccccc2[nH]c1=O	inactive
COc1ccc(OCc2cccc(C(=O)N3CCCC3)c2)cc1	inconclusive [inhibitor, single point]
CC[C@@H]1C(c2cccc(Cl)c2)=NN(c2ccc(Br)cc2)[C@H]1C(=O)N1CCOC1=O	inconclusive [inhibitor, partial curve]
COC1=C(OC)C(=O)c2ccccc2C1=O	active: 14.1 µM
CCOc1cnc(-c2c(-c3c(F)cccc3Cl)noc2C)o1	inconclusive [inhibitor, single point]
O=C(O)c1ccc(NS(=O)(=O)c2ccc3c(c2)C(=O)c2cc(S(=O)(=O)Nc4ccc(C(=O)O)cc4)ccc2-3)cc1	inactive
O=C(Cc1ccccc1I)Nc1ccccc1	inactive
Cc1cc2oc(=O)c3c(c2cc1OCc1nn[nH]n1)CCCC3	inconclusive [inhibitor, partial curve]
CCOC(=O)c1c(CC(C)C)csc1NC(=O)COC(=O)c1cc(OC)c(OC)cc1[N+](=O)[O-]	inactive
Cc1ccc(-n2c(SCC(=O)Nc3ccc4c(c3)OCCO4)nnc2-c2ccco2)cc1	inconclusive [inhibitor, single point]
O=C(CSCc1ccccn1)Nc1ccccc1	inactive
Cc1ccc2occ(/C=C/C(=O)c3ccccc3O)c(=O)c2c1	active: 7.94 µM
CC(Oc1ccc2c(-c3ccccc3)cc(=O)oc2c1)C(=O)O (stereo unspecified)	active: 28.2 µM
O=C(Nc1cccc(Cl)c1N1CCCCC1)c1ccc2c(c1)OCCO2	inactive
COc1ccc(CCN(/C=C2\Sc3ccccc3C2=O)C(C)=O)cc1OC	inactive
COC(=O)c1sc(NC(=S)NC(=O)c2ccc(C)cc2)nc1C	inconclusive [inhibitor, single point]
O=C(C1CCN(c2ncnc3c2sc2cccc(F)c23)CC1)N1CCOCC1	inactive
CC(C)(C)c1ccccc1NC(=O)c1c(O)c2cccc3c2n(c1=O)CC3	inconclusive [inhibitor, single point]
COc1cc(NC(=O)c2noc3c2CCCC3)c(OC)cc1Cl	inconclusive [inhibitor, partial curve]
O=C(N/N=C/c1cn(-c2ccccc2)nc1-c1cc2ccccc2o1)c1c[nH]c2ccccc12	inconclusive [inhibitor, single point]
OCC(O)CN(c1ccccc1)c1ccccc1 (stereo unspecified)	inconclusive [inhibitor, single point]

Structure (SMILES)	Potency
Cc1nnc(Sc2nc3ccccc3o2)c2ccccc12	inconclusive [inhibitor, single point]
COc1cccc(C2C3=C(N=c4s/c(=C\c5cccc(O)c5)c(=O)n42)c2ccccc2CC3)c1OC (stereo unspecified)	inactive
C/C(N)=C(/C#N)C(=O)COC(=O)C1CCN(C(=O)c2ccc(Cl)cc2)CC1	inactive
COc1cccc(Nc2c3c(nc4c(-c5ccccc5)c(C)nn24)CCC3)c1	inconclusive [inhibitor, single point]
CSc1ccc(C(=O)C2CCCN(C(=O)c3cccnc3SC)C2)cc1 (stereo unspecified)	inactive
Cc1ccc(S(=O)(=O)Nc2ccc(N3CCCCC3)cc2)cc1	inconclusive [inhibitor, single point]
CC(=O)Nc1ccc2nc(NC(=O)COc3cccc(C)c3)sc2c1	inconclusive [inhibitor, partial curve]
Cc1[nH]n(-c2ccc([N+](=O)[O-])cc2)c(=O)c1C=NCCN1CCN(C(=O)c2ccccc2F)CC1	inconclusive [inhibitor, partial curve]
CC(C)N(CCNC(=O)C1CCN(S(=O)(=O)N2CCOCC2)CC1)Cc1ccccc1	inactive
CCOc1ccccc1NC(=O)CSC1=C(C#N)C(c2ccco2)C(C(=O)Nc2nc3ccccc3s2)=C(C)N1 (stereo unspecified)	inconclusive [inhibitor, partial curve]
Cc1nc2ccc(N)cc2c(=O)n1Cc1ccc(Cl)cc1	inconclusive [inhibitor, single point]
CCCCC(=O)Nc1ccc2oc(-c3cccnc3)nc2c1	inconclusive [inhibitor, partial curve]
O=C(Oc1ccc2ccccc2c1Br)N1CCCCCC1	inactive
Cc1ncc(CN2CCN(CCc3ccccc3)C(CCO)C2)s1 (stereo unspecified)	inactive
CCCCC1=CC2=C(c3ccco3)C(=O)C(C)(OC(=O)c3ccc(OC)cc3)C(=O)C2=CN1C1CC1 (stereo unspecified)	inconclusive [inhibitor, single point]
CCOc1ccc(OCCN2C(=O)NC3(CCCc4ccccc43)C2=O)cc1 (stereo unspecified)	inactive
CCc1nc(NCc2ccccn2)c2oc3ccccc3c2n1	inactive
CCOc1cc(S(=O)(=O)NCc2ccncc2)c(C)cc1C	inactive
O=C(NCc1ccc2c(c1)OCO2)c1ccc(Cl)nc1	inactive
COC(=O)c1cc(OC)c(OC)cc1NC(=O)C1CCC(=O)N1S(=O)(=O)c1ccc(C)cc1 (stereo unspecified)	inactive
Cc1ccc(C(=O)Nc2ccnc(-c3ccncc3)n2)cc1	inactive
CN(C)CCNC(=O)c1cccc(S(=O)(=O)Nc2ccccc2F)c1	inactive
CC1Cc2ccccc2N1C(=O)CNc1ccccc1N1CCCCC1 (stereo unspecified)	active: 12.6 µM
COc1ccccc1NC(=O)NS(=O)(=O)c1ccc(C)cc1	inactive
Cc1ccc(-c2cc(C(F)F)n3ncc(C(=O)N4CCc5ccccc5C4)c3n2)cc1	inactive
Cc1noc(/C=C/c2ccco2)c1S(=O)(=O)N1CCC(C(=O)N2CCc3ccccc3C2)CC1	inconclusive [inhibitor, single point]

Structure (SMILES)	Potency
CC(=O)Nc1sc(N/N=C\c2ccccc2Cl)nc1-c1cccs1	inconclusive [inhibitor, single point]
CC(=O)Oc1ccc(/C=C/C(=O)CC2OC(Oc3cc(OC(C)=O)c4c(c3)O[C@@H](c3ccc(OC(C)=O)cc3)CC4=O)C(OC(C)=O)C(OC(C)=O)C2OC(C)=O)cc1 (stereo partly specified)	inactive
COc1ccc(-c2nnc(NC(=O)CSc3ccccc3)s2)cc1OC	inconclusive [inhibitor, single point]
COC(=O)N1[C@H](Cc2ccccc2)C=C[C@]1(C)C(=O)O	inactive
CC(=O)/C(=N/Nc1ccccc1)Sc1nnc(CCc2ccccc2)n1-c1ccccc1	inconclusive [inhibitor, single point]
COC(=O)c1cn(NC(=O)CC2CCCCC2)c(=O)c2ccccc12	inconclusive [inhibitor, partial curve]
CN1CCN(C(=O)c2cc(C(C)(C)C)cc(C(C)(C)C)c2)CC1	inactive
CC(=O)Nc1ccc(-c2cc(C(=O)O)c3cc4ccccc4cc3n2)cc1	inconclusive [inhibitor, single point]
CCCOc1ccc(C(C)=O)cc1CSc1nc(O)cc(=O)[nH]1	inconclusive [inhibitor, single point]
CCN(CC)C(=O)c1sc2nc(-c3cccs3)cc(-c3ccc(Cl)cc3)c2c1N	inconclusive [inhibitor, partial curve]
CCOC(=O)c1ccc(NC(=O)CSc2nnc(C3CC3)n2C)cc1	inactive
COc1ccc(-n2c(SCC(=O)Nc3ncc(Cl)cc3Cl)nc3ccccc32)cc1	inactive
Cc1ccccc1N(C)C(=O)c1coc(=O)c2ccccc12	inconclusive [inhibitor, single point]
Cc1ccc(NC(=O)c2ccc(-n3cccn3)c([N+](=O)[O-])c2)cc1C	inconclusive [inhibitor, single point]
CCn1c2ccccc2c2cc(C3N=C(N)Nc4nc5ccccc5n43)ccc21 (stereo unspecified)	inconclusive [inhibitor, single point]
Cc1c(CC(C)(C)C(=O)O)n(Cc2ccc(Cl)cc2)c2ccc(F)cc12	inactive
S=C(NCc1ccccn1)Nc1ccccc1	inactive
COC(=O)C1=C(C)NC=C([N+](=O)[O-])C1c1ccc(OC)cc1 (stereo unspecified)	inactive
COC(=O)CCCNC(=O)c1ccccn1	inactive
Cc1cc(OCC(=O)NCC(C)C)cc(C)c1Br	inconclusive [inhibitor, single point]
N#Cc1nc(COc2ccc(F)cc2)oc1NCCN1CCOCC1	inconclusive [inhibitor, single point]
Cc1ccc([N+](=O)[O-])c(OCCN2CCCCCC2)c1	active: 15 µM
COC(=O)C1=C(C)NC(=O)C1(NC(=O)c1ccncc1)C(F)(F)F (stereo unspecified)	inactive
CC(=O)c1cc2c(cc1NC(=O)CCc1ccccc1)OCO2	inconclusive [inhibitor, single point]
